Data from article PMC12136788.
This is one part of the list.

B1: chr8:88167829:88167930:-|CDS|ENSG00000156103|msi1|FALSE|bound_elsewhere (ssRNA)
RNA: GGGAGUUCUACAGUCCGACGAUCCUUUGAUGUGUGGCAGAAUGUAACUCCUCUGACAUUUGAAGAAGUUCCCUACAGUGAAUUAGAAAAUGGCAAACGUGAUGUGGAUAUAACCAUUAUUUUUGCAUCUGGUUUCCAUGGGGACAACAGAGGAUUGAGCAUCA
B2: chr12:293013:293114:-|CDS|ENSG00000073614|unk|total|mutant (ssRNA)
RNA: GGGAGUUCUACAGUCCGACGAUCACUAAAAGUGAAAGGAAAGGACUCUUCAGAGAAGAAACGGAAACGGAAGCCCGAAAAGGCCGAGCAACUUUUUGGAGAAGGAAAACAGAAGUCCAAGGAGUUAAAGAAAAUGGACAAACCCAACAGAGGAUUGAGCAUCA
B3: chr20:56370492:56370607:-|CDS|ENSG00000087586|unk|FALSE|unique (ssRNA)
RNA: GGGAGUUCUACAGUCCGACGAUCUCGGAUGCAUGAUGAGAAGGUGGAUCUCUGGAGCCUUGGAGUUCUUUGCUAUGAAUUUUUAGUUGGGAAGCCUCCUUUUGAGGCAAACACAUACCAAGAGACCUACAAAAGAAUAUCACGCAACAGAGGAUUGAGCAUCA
B4: chr16:21655520:21655610:+|3pUTR|ENSG00000197006|msi1_unk|FALSE|overlapping (ssRNA)
RNA: GGGAGUUCUACAGUCCGACGAUCUCUGUGUUCACAAUUACGUGAAGGGAGGACCCUUGGGGACCGCCAUUCUAAAUAUCAUGUAGGAAUUUAAAAAGCCAAAAUACUAAUUAUUUCUUUGUAGUGUGUAAAGGAAUGUUUUUACAACAGAGGAUUGAGCAUCA
B5: chr14:100882551:100882663:-|CDS|ENSG00000254656|unk|FALSE|unique (ssRNA)
RNA: GGGAGUUCUACAGUCCGACGAUCGCUCUCCCCAGACCCUAUCAUACCUCAGAACGUGAUUCACUUCAUCCUAAAGGACAUGCUAGGGUUCUUUGUGCUUUCUUAUGGCCAGGAAGUCCUGAUCUACUCAAUGAGUCAGGAGGACAACAGAGGAUUGAGCAUCA
B6: chr1:26281289:26281390:+|3pUTR|ENSG00000142669|msi1_unk|total|mutant (ssRNA)
RNA: GGGAGUUCUACAGUCCGACGAUCUCCCUCCUCUCUAAAUGCCGUCCCCUCUCCUCCAUCUAAAGGCAACAUUCCUUACCCAUCCGUCUCAGAAAUUGUCUUAAGCAACAGCCCCAAAUGCUGGCUGCCCCCAGCCAAGCAUUGCAACAGAGGAUUGAGCAUCA
B7: ENSG00000113068:stop:overlap|stop_codon|ENSG00000113068|stop_codon|NA|stop_codon (ssRNA)
RNA: GGGAGUUCUACAGUCCGACGAUCGAAGCGUUAAGGAAGCUGAGGACAACAUCCGGGAGAUGCUGAUGGCACGAAGGGCCCAGUAGGGAGCCUCUCUGGGAAGCUCUUCCUCCUGCCCCUCCCAUUCCUGGUGGGGGCAGAGGACAACAGAGGAUUGAGCAUCA
B8: chr11:86278520:86278536:+|CDS_3pUTR|ENSG00000074266|msi1_unk|FALSE|overlapping (ssRNA)
RNA: GGGAGUUCUACAGUCCGACGAUCUGAUGCCAGUAUUUGGCGCUGGGAUCGACUUCGAUAAAAUACUUUUGCCUAAUCAAAAUUAGAGUGUGUUUGUUGUCUGUGUAAAAUAGAAUUAAUGUAUCUUGCUAGUAAGGGCACGUACAACAGAGGAUUGAGCAUCA
B9: chr12:76028832:76028933:-|3pUTR|ENSG00000139289|msi1|total|mutant (ssRNA)
RNA: GGGAGUUCUACAGUCCGACGAUCAAAGGAAAAGACUGGAUAAACACAGGAUUUUCAGUAAGAAAACAACCCCAGUCUUGUCUCCGAAGCCACUUGUUGAGGAGUCUGUUGGGGGAAAAAAGAGGAUAUGCUUUUAAAGGCCGACAACAGAGGAUUGAGCAUCA
B10: chr2:88027786:88028563:-|CDS|ENSG00000172086|control|control|control (ssRNA)
RNA: GGGAGUUCUACAGUCCGACGAUCAACCGUACAUGUCAGUACAGAAAAGCUUAAGAAUCGAAAGGAGAAAAAAAGCCGAGAUGUAGUCUCUAAGAAAGAGGAACGUAAGCGUACAAAAAAGAAAAAGGAACAAGGCCAAGAAAGCAACAGAGGAUUGAGCAUCA
B11: chr11:85958428:85958534:-|3pUTR|ENSG00000073921|unk|total|mutant (ssRNA)
RNA: GGGAGUUCUACAGUCCGACGAUCAGAAACAAUAACUGAAAUUAACUUUUCUUUUUUUAAAAAAAAUUAUAUUCAGUUUGCAGCCGACAUUCCUUAAGUAUUUGUAUUUAUUUAUGAUUAUCAAUUUUACAUAACAUUAAUAUUCAACAGAGGAUUGAGCAUCA
B12: chr17:18327447:18327548:+|3pUTR|ENSG00000176994|msi1|total|mutant (ssRNA)
RNA: GGGAGUUCUACAGUCCGACGAUCGUCAACUCACAGAUUCUGCAGCAGCUGCUCCACCCACAAUAAAGCAAACGCCGACAGGCCCGACCCCAGAUUGCAGGGGCUGCCACCUACAAGGUGGGACCACAGGCUGCCUCACCGGGACAACAGAGGAUUGAGCAUCA
B13: chr6:132296306:132296407:-|3pUTR|ENSG00000079931|msi1|total|mutant (ssRNA)
RNA: GGGAGUUCUACAGUCCGACGAUCAUGGGAAACACCGAAAUGGUAUGUAUUAAUAACUGAUCACCGGCUGAGGAGAAAAAAUGCCGCUGGCUGCAAACCCAGUGCUGUGAGGUGACUUAUAUGAGGUUCCAGAUCAAAGACAGGCAACAGAGGAUUGAGCAUCA
B14: chr12:102417490:102417817:-|three_prime_utr|ENSG00000017427|control|control|control (ssRNA)
RNA: GGGAGUUCUACAGUCCGACGAUCACAGAGGCAAGGAUGAUGAGAGAGGAGCAGACAGCAAGAAUGAAAAGCAGAAAAUACAAUAGAGGAAAUGAAGAAAAGUAGGCCUGCUGGAGCUAGAUGAUGAUGUGAUGGAAAUAGAAGCAACAGAGGAUUGAGCAUCA
B15: ENSG00000065911:stop:overlap|stop_codon|ENSG00000065911|stop_codon|NA|stop_codon (ssRNA)
RNA: GGGAGUUCUACAGUCCGACGAUCACAGCUGCUCCCUUCGCCUUCGCCCUUUCCACCUCGCGGCAGUUCGGGGAAUCUCUCCCUAGGUCAGGUUGGAGUGCAGUGCUGCAAUCACGGCUUACUGCAGCCUUGACCUCCUGGGCUCAACAGAGGAUUGAGCAUCA
B16: chr16:74503563:74503676:-|CDS|ENSG00000090863|unk|FALSE|bound_elsewhere (ssRNA)
RNA: GGGAGUUCUACAGUCCGACGAUCGGCAACAUCACUGAGUAUCAGUGUCACCAGUACAUUACCAAGAUGACGGCCAUCAUUUUUAGUGAUUACCGUUUAAUCUGUGGCUUCAUGGAUGACUGCAAAAAUGACAUCAACAUUCUGCAACAGAGGAUUGAGCAUCA
B17: chr1:34868604:34869089:-|CDS|ENSG00000116544|control|control|control (ssRNA)
RNA: GGGAGUUCUACAGUCCGACGAUCGCCCCCACCCCCGGCCCUGGGGCCGGCCGCCGUGACUCCUGGAUAGAGCGCGGUUCACGUAGCCUCCCCGACUCAGGCCGCGCAUCCCCCUGCCCACGCGACGGCGAGUGGUUCAUCAAGCAACAGAGGAUUGAGCAUCA
B18: chr9:96387934:96388035:-|3pUTR|ENSG00000165244|msi1|total|mutant (ssRNA)
RNA: GGGAGUUCUACAGUCCGACGAUCAAUAUUUUGUAAAUAUGGACUGCACAGUACAGGGCCGAAAACUACAUAUUGUGGGAAGCCCGAUUUUGCAAGUUUAAUGCAUUCAUUGGAAGCAGUUCUCACAGGAAGCACUUUCUGAAUCAACAGAGGAUUGAGCAUCA
B19: chr20:11926050:11926151:+|3pUTR|ENSG00000132640|msi1|FALSE|unique (ssRNA)
RNA: GGGAGUUCUACAGUCCGACGAUCAUGAAAUGGAAUGAAGGCUAAUAUGCUUGCUUUAUUUACUUUUGUAAUCUUGGAUUUUGUAGCUUUUAAAACUAGAAACCAUUGUUCUAACAAAGCAGGCAACUUUAUUCUAUAAACACACAACAGAGGAUUGAGCAUCA
B20: chr8:65707876:65707977:+|CDS|ENSG00000066855|unk|FALSE|unique (ssRNA)
RNA: GGGAGUUCUACAGUCCGACGAUCCCUGCUGCCCUCAUAGCAGAGGCUCUGAAAAAGAAAUUUGCUUAUCGGUAUCGAAGUGAUAGCCAAGAUGAAGUUGAAAAAGGAAUUCCAAAGUCUGAAUCAGAGGCCACCUCAGAGAGACAACAGAGGAUUGAGCAUCA
B21: chr1:225495143:225495244:-|3pUTR|ENSG00000154380|msi1|total|mutant (ssRNA)
RNA: GGGAGUUCUACAGUCCGACGAUCACAUUAUUAUGAUGGUUUUUGUGCUCUUGUACGUUGGAUGUCUUAAGCUGAGUACAGUUCCGGGGAUCCUUUCUAAUGACAGGAAGGCACUGCUUUCCUCAACACUGUGAUCUGACCUGUCAACAGAGGAUUGAGCAUCA
B22: chr20:4700004:4700108:+|3pUTR|ENSG00000171867|msi1|FALSE|unique (ssRNA)
RNA: GGGAGUUCUACAGUCCGACGAUCUCACCAUCUUUCUAAUCUUUUUCCAGCUUGAGGGAGGCGGUAUCCACCUGCAGCCCUUUUAGUGGUGGUGUCUCACUCUUUCUUCUCUCUUUGUCCCGGAUAGGCUAAUCAAUACCCUUGCAACAGAGGAUUGAGCAUCA

molecular target: MSI1 full-length (mouse, UniProt Q61474 1-362); test: nsRBNS (natural sequence RNA bind-n-seq); RBNS binding buffer (assumed for nsRBNS): 25 mM Tris pH 7.5, 150 mM KCl, 3 mM MgCl2, 0.01% Triton X-100, 500 ug/ml BSA, 20 U/ml SUPERase-In, 4 C; UNK is unkempt and MSI1 is Musashi-1; names of the RNAs are library labels; protein concentration not given here; high values mean tight binding
Chain of UniProt Q61474 (Q61474 whole entry): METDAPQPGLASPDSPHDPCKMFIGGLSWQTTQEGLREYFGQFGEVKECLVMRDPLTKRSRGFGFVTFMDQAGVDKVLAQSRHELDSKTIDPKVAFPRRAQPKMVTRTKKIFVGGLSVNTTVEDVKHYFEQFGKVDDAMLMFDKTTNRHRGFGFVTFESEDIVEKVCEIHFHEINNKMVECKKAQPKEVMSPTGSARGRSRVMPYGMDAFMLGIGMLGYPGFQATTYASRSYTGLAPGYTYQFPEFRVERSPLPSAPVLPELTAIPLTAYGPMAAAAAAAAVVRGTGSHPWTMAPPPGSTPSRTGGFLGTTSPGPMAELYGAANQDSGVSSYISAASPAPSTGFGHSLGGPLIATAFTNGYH

Q: B1 was tested. Which binding signal did it give?
A: Its binding signal is 0.253 enrichment R.

Q: With B2 as the binder, how does the binding signal read?
A: The binding signal was 0.418 enrichment R.

Q: For B3, which binding signal is on record?
A: The binding signal was 0.408 enrichment R.

Q: With B4 as the binder, how does the binding signal read?
A: The binding signal was 3.67 enrichment R.

Q: How did the binding signal turn out when B5 was run?
A: The binding signal was 0.354 enrichment R.

Q: B6 was tested. Which binding signal did it give?
A: Its binding signal is 0.949 enrichment R.

Q: How did the binding signal turn out when B7 was run?
A: The binding signal was 0.7 enrichment R.

Q: For B8, which binding signal is on record?
A: Its binding signal is 4.91 enrichment R.

Q: Which binding signal does the source give for B9 here?
A: Its binding signal is 0.355 enrichment R.

Q: For B10, which binding signal is on record?
A: Its binding signal is 1.36 enrichment R.

Q: With B11 as the binder, how does the binding signal read?
A: The binding signal was 2.3 enrichment R.

Q: Which binding signal does the source give for B12 here?
A: The binding signal was 0.649 enrichment R.

Q: How did the binding signal turn out when B13 was run?
A: The binding signal was 0.413 enrichment R.

Q: Which binding signal does the source give for B14 here?
A: The binding signal was 2.53 enrichment R.

Q: For B15, which binding signal is on record?
A: Its binding signal is 0.471 enrichment R.

Q: Which binding signal does the source give for B16 here?
A: The binding signal was 0.238 enrichment R.

Q: B17 was tested. Which binding signal did it give?
A: Its binding signal is 0.554 enrichment R.

Q: For B18, which binding signal is on record?
A: Its binding signal is 0.204 enrichment R.

Q: B19 was tested. Which binding signal did it give?
A: The binding signal was 1.07 enrichment R.

Q: How did the binding signal turn out when B20 was run?
A: Its binding signal is 0.29 enrichment R.

Q: For B21, which binding signal is on record?
A: The binding signal was 0.294 enrichment R.

Q: Which binding signal does the source give for B22 here?
A: Its binding signal is 1.44 enrichment R.
